# Publication PMC9911399, “Two distinct binding modes provide the RNA-binding protein RbFox with extraordinary sequence specificity”
# Where a chain is given by its changes, count along the chain named. Some of the results follow.
# T1: RBFOX1 RRM RbFoxmut (Fox-RRM*) (Homo sapiens, UniProt Q9NWB1 109-208, R118D;E147R;N151S;E152T)
# T1 sequence: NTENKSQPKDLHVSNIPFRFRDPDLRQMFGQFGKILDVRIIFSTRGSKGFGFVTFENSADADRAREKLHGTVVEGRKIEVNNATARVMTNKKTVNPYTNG
# B1: AUCAGGC (DNA:RNA)
# RNA: GGGAGACCGGAAUUCAGAUUGUCCAUCAGGCUUAAAUCCCGUCGUAGCCACCA
# DNA 1: CAATCTGAATTCCGGTCTCCC
# DNA 2: TGGTGGCTACGACGGGATT
# B2: AUAGGUA (DNA:RNA)
# RNA: B1 RNA with C27A, A28G, G30U, C31A
# DNA 1: CAATCTGAATTCCGGTCTCCC
# DNA 2: TGGTGGCTACGACGGGATT
# B3: GCCCCAU (DNA:RNA)
# RNA: B1 RNA with A25G, U26C, A28C, G29C, G30A, C31U
# DNA 1: CAATCTGAATTCCGGTCTCCC
# DNA 2: TGGTGGCTACGACGGGATT
# B4: GUGCUCC (DNA:RNA)
# RNA: B1 RNA with A25G, C27G, A28C, G29U, G30C
# DNA 1: CAATCTGAATTCCGGTCTCCC
# DNA 2: TGGTGGCTACGACGGGATT
# B5: CAAGCAU (DNA:RNA)
# RNA: GGGAGACCGGAAUUCAGAUUGUCCCAAGCAUUUAAAUCCCGUCGUAGCCACCA
# DNA 1: CAATCTGAATTCCGGTCTCCC
# DNA 2: TGGTGGCTACGACGGGATT
# B6: UAUGAAU (DNA:RNA)
# RNA: B5 RNA with C25U, A27U, C29A
# DNA 1: CAATCTGAATTCCGGTCTCCC
# DNA 2: TGGTGGCTACGACGGGATT
# B7: UCACAGC (DNA:RNA)
# RNA: B1 RNA with A25U, U26C, C27A, A28C, G29A
# DNA 1: CAATCTGAATTCCGGTCTCCC
# DNA 2: TGGTGGCTACGACGGGATT
# B8: UACCAUG (DNA:RNA)
# RNA: B1 RNA with A25U, U26A, A28C, G29A, G30U, C31G
# DNA 1: CAATCTGAATTCCGGTCTCCC
# DNA 2: TGGTGGCTACGACGGGATT
# B9: UACCUAG (DNA:RNA)
# RNA: B5 RNA with C25U, A27C, G28C, C29U, U31G
# DNA 1: CAATCTGAATTCCGGTCTCCC
# DNA 2: TGGTGGCTACGACGGGATT
# B10: CAAAACU (DNA:RNA)
# RNA: B5 RNA with G28A, C29A, A30C
# DNA 1: CAATCTGAATTCCGGTCTCCC
# DNA 2: TGGTGGCTACGACGGGATT
# B11: UCCGACC (DNA:RNA)
# RNA: B1 RNA with A25U, U26C, A28G, G29A, G30C
# DNA 1: CAATCTGAATTCCGGTCTCCC
# DNA 2: TGGTGGCTACGACGGGATT
# B12: UUGCUGA (DNA:RNA)
# RNA: B1 RNA with A25U, C27G, A28C, G29U, C31A
# DNA 1: CAATCTGAATTCCGGTCTCCC
# DNA 2: TGGTGGCTACGACGGGATT
# B13: CUUAACU (DNA:RNA)
# RNA: B1 RNA with A25C, C27U, G29A, G30C, C31U
# DNA 1: CAATCTGAATTCCGGTCTCCC
# DNA 2: TGGTGGCTACGACGGGATT
# B14: GCACCUG (DNA:RNA)
# RNA: B5 RNA with C25G, A26C, G28C, A30U, U31G
# DNA 1: CAATCTGAATTCCGGTCTCCC
# DNA 2: TGGTGGCTACGACGGGATT
# B15: CGGAUUC (DNA:RNA)
# RNA: B1 RNA with A25C, U26G, C27G, G29U, G30U
# DNA 1: CAATCTGAATTCCGGTCTCCC
# DNA 2: TGGTGGCTACGACGGGATT
# B16: AUAAGGC (DNA:RNA)
# RNA: B1 RNA with C27A
# DNA 1: CAATCTGAATTCCGGTCTCCC
# DNA 2: TGGTGGCTACGACGGGATT
# B17: GACUCCC (DNA:RNA)
# RNA: B1 RNA with A25G, U26A, A28U, G29C, G30C
# DNA 1: CAATCTGAATTCCGGTCTCCC
# DNA 2: TGGTGGCTACGACGGGATT
# B18: GUCGGUG (DNA:RNA)
# RNA: B1 RNA with A25G, A28G, G30U, C31G
# DNA 1: CAATCTGAATTCCGGTCTCCC
# DNA 2: TGGTGGCTACGACGGGATT
# B19: AUAAAAU (DNA:RNA)
# RNA: B1 RNA with C27A, G29A, G30A, C31U
# DNA 1: CAATCTGAATTCCGGTCTCCC
# DNA 2: TGGTGGCTACGACGGGATT
# B20: UCCUUGA (DNA:RNA)
# RNA: B1 RNA with A25U, U26C, A28U, G29U, C31A
# DNA 1: CAATCTGAATTCCGGTCTCCC
# DNA 2: TGGTGGCTACGACGGGATT
# B21: GUAAUGA (DNA:RNA)
# RNA: B1 RNA with A25G, C27A, G29U, C31A
# DNA 1: CAATCTGAATTCCGGTCTCCC
# DNA 2: TGGTGGCTACGACGGGATT
# B22: UGGAGUG (DNA:RNA)
# RNA: B1 RNA with A25U, U26G, C27G, G30U, C31G
# DNA 1: CAATCTGAATTCCGGTCTCCC
# DNA 2: TGGTGGCTACGACGGGATT
# B23: AACAAGA (DNA:RNA)
# RNA: B1 RNA with U26A, G29A, C31A
# DNA 1: CAATCTGAATTCCGGTCTCCC
# DNA 2: TGGTGGCTACGACGGGATT
# B24: GUCUGAU (DNA:RNA)
# RNA: B1 RNA with A25G, A28U, G30A, C31U
# DNA 1: CAATCTGAATTCCGGTCTCCC
# DNA 2: TGGTGGCTACGACGGGATT
# B25: AGACUUG (DNA:RNA)
# RNA: B1 RNA with U26G, C27A, A28C, G29U, G30U, C31G
# DNA 1: CAATCTGAATTCCGGTCTCCC
# DNA 2: TGGTGGCTACGACGGGATT
# B26: CGUCAGC (DNA:RNA)
# RNA: B1 RNA with A25C, U26G, C27U, A28C, G29A
# DNA 1: CAATCTGAATTCCGGTCTCCC
# DNA 2: TGGTGGCTACGACGGGATT
# B27: UGUAGCG (DNA:RNA)
# RNA: B1 RNA with A25U, U26G, C27U, G30C, C31G
# DNA 1: CAATCTGAATTCCGGTCTCCC
# DNA 2: TGGTGGCTACGACGGGATT
# B28: UUCACAA (DNA:RNA)
# RNA: B1 RNA with A25U, G29C, G30A, C31A
# DNA 1: CAATCTGAATTCCGGTCTCCC
# DNA 2: TGGTGGCTACGACGGGATT
# B29: AAAGAGG (DNA:RNA)
# RNA: B5 RNA with C25A, C29A, A30G, U31G
# DNA 1: CAATCTGAATTCCGGTCTCCC
# DNA 2: TGGTGGCTACGACGGGATT
# B30: CGUGGGC (DNA:RNA)
# RNA: B1 RNA with A25C, U26G, C27U, A28G
# DNA 1: CAATCTGAATTCCGGTCTCCC
# DNA 2: TGGTGGCTACGACGGGATT
# B31: GUCGAUC (DNA:RNA)
# RNA: B1 RNA with A25G, A28G, G29A, G30U
# DNA 1: CAATCTGAATTCCGGTCTCCC
# DNA 2: TGGTGGCTACGACGGGATT
# Target: T1, RBFOX1 RRM RbFoxmut (Fox-RRM*)
# Assay: EMSA; HiTS-Eq, 1 nM pool, 10 min; buffer printed only for the single-RNA assays: 10 mM Tris pH 7.5, 150 mM NaCl, 3.4 mM EDTA, 0.001% NP-40, 30 C
# Conditions: tags: His6 N-terminal (pET28a); label: 5' 32P
# Outline: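 Purified wild-type or mutant RbFox RRM at increasing concentrations was equilibrated with 1 nM of 5′-radiolabelled RNA carrying 7 randomized nucleotides for 10 min in 50 µL. Unbound RNA was separated by 8% native PAGE and sequenced. Relative association constants came from read-count changes of each RNA species compared with the control reaction, normalised to the cognate motif.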
row,Binder,binding signal
1,B1,0.132 KA relative to UGCAUGU
2,B2,0.156 KA relative to UGCAUGU
3,B3,0.0725 KA relative to UGCAUGU
4,B4,0.0573 KA relative to UGCAUGU
5,B5,0.122 KA relative to UGCAUGU
6,B6,0.122 KA relative to UGCAUGU
7,B7,0.0611 KA relative to UGCAUGU
8,B8,0.0835 KA relative to UGCAUGU
9,B9,0.11 KA relative to UGCAUGU
10,B10,0.0848 KA relative to UGCAUGU
11,B11,0.0323 KA relative to UGCAUGU
12,B12,0.126 KA relative to UGCAUGU
13,B13,0.0937 KA relative to UGCAUGU
14,B14,0.112 KA relative to UGCAUGU
15,B15,0.117 KA relative to UGCAUGU
16,B16,0.0949 KA relative to UGCAUGU

row,Binder,binding signal
1,B17,0.0539 KA relative to UGCAUGU
2,B18,0.161 KA relative to UGCAUGU
3,B19,0.0958 KA relative to UGCAUGU
4,B20,0.106 KA relative to UGCAUGU
5,B21,0.121 KA relative to UGCAUGU
6,B22,0.45 KA relative to UGCAUGU
7,B23,0.058 KA relative to UGCAUGU
8,B24,0.092 KA relative to UGCAUGU
9,B25,0.148 KA relative to UGCAUGU
10,B26,0.126 KA relative to UGCAUGU
11,B27,0.262 KA relative to UGCAUGU
12,B28,0.0861 KA relative to UGCAUGU
13,B29,0.0794 KA relative to UGCAUGU
14,B30,0.0996 KA relative to UGCAUGU
15,B31,0.0619 KA relative to UGCAUGU
